Assay results from the supplement of paper PMC9151546.
Most values come without repeats; read them as rough.

Experiments:
CHO-K1 [1] = assay: hypodiploid nuclei frequency (% of nucleated events); higher = more hypodiploid events (aneugenic)
Protocol: (§1)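 Flow-cytometric in vitro micronucleus assay (Litron MicroFlow) in CHO-K1 cells in 96-well plates, 19 concentrations (4.5-200 µM, n=1 per concentration). Without S9, cells were exposed for 24 h and sampled at 48 h. With Aroclor 1254-induced rat liver S9, cells were exposed for 3-4 h and sampled at 27-28 h. Read-outs are %MN and %hypodiploid nuclei relative to nucleated events, and relative survival as the nuclei-to-bead ratio versus the 1% DMSO vehicle control (x100).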

CHO-K1 [2] = assay: relative survival (nuclei to bead ratio vs DMSO control) (% of vehicle control); higher = more surviving cells
Protocol: as §1

CHO-K1 [3] = assay: micronucleus frequency (% of nucleated events); higher = more micronuclei (genotoxic)
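Wherever hypodiploid nuclei frequency (% of nucleated events) is given: hypodiploid nuclei gated on a flow cytometer with 488 nm excitation after SYTOX Green staining, cultures at 37 °C, positive controls vinblastine without S9 and cyclophosphamide with S9.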
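Wherever micronucleus frequency (% of nucleated events) is given: cells lysed with nuclei stained by SYTOX Green, then micronucleus-gated events counted against nucleated events by flow cytometry with 488 nm excitation.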
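Wherever relative survival (nuclei to bead ratio vs DMSO control) is given: Lysed-cell nuclei stained with SYTOX Green and counted against counting beads by flow cytometry at 488 nm excitation, with vinblastine (no S9) and cyclophosphamide (plus S9) as positive controls.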

COC(=O)c1ccc(O)cc1 [Methylparaben]
Settings | hypodiploid nuclei frequency, CHO-K1 [1] [%] | micronucleus frequency, CHO-K1 [3] [%] | relative survival, CHO-K1 [2]
concentration: 4.5 (µM), S9 metabolic activation: with S9, exposure time: 3-4 hours | 0.46 | 1.46 | 93.1
concentration: 4.5 (µM), S9 metabolic activation: without S9, exposure time: 24 hours | 0.48 | 1.42 | 113
concentration: 5.63 (µM), S9 metabolic activation: with S9, exposure time: 3-4 hours | 0.4 | 1.5 | 84.8
concentration: 5.63 (µM), S9 metabolic activation: without S9, exposure time: 24 hours | 0.6 | 1.8 | 90.7
concentration: 7.04 (µM), S9 metabolic activation: with S9, exposure time: 3-4 hours | 0.32 | 1.7 | 98.8
concentration: 7.04 (µM), S9 metabolic activation: without S9, exposure time: 24 hours | 0.5 | 1.34 | 114
concentration: 8.8 (µM), S9 metabolic activation: with S9, exposure time: 3-4 hours | 0.24 | 1.36 | 115
concentration: 8.8 (µM), S9 metabolic activation: without S9, exposure time: 24 hours | 0.52 | 1.26 | 107
concentration: 11 (µM), S9 metabolic activation: with S9, exposure time: 3-4 hours | 0.4 | 1.96 | 123
concentration: 11 (µM), S9 metabolic activation: without S9, exposure time: 24 hours | 0.68 | 1.4 | 107
concentration: 13.7 (µM), S9 metabolic activation: with S9, exposure time: 3-4 hours | 0.34 | 1.04 | 109
concentration: 13.7 (µM), S9 metabolic activation: without S9, exposure time: 24 hours | 0.44 | 1.24 | 109
concentration: 17.2 (µM), S9 metabolic activation: with S9, exposure time: 3-4 hours | 0.22 | 1.5 | 143
concentration: 17.2 (µM), S9 metabolic activation: without S9, exposure time: 24 hours | 0.4 | 1.22 | 106
concentration: 21.5 (µM), S9 metabolic activation: with S9, exposure time: 3-4 hours | 0.3 | 1.42 | 121
concentration: 21.5 (µM), S9 metabolic activation: without S9, exposure time: 24 hours | 0.64 | 1.1 | 100
concentration: 26.8 (µM), S9 metabolic activation: with S9, exposure time: 3-4 hours | 0.48 | 1.16 | 88.5
concentration: 26.8 (µM), S9 metabolic activation: without S9, exposure time: 24 hours | 0.64 | 1.42 | 90.7
concentration: 33.6 (µM), S9 metabolic activation: with S9, exposure time: 3-4 hours | 0.42 | 1.22 | 85.5
concentration: 33.6 (µM), S9 metabolic activation: without S9, exposure time: 24 hours | 0.44 | 1.34 | 93.6
concentration: 41.9 (µM), S9 metabolic activation: with S9, exposure time: 3-4 hours | 0.52 | 1.12 | 77.1
concentration: 41.9 (µM), S9 metabolic activation: without S9, exposure time: 24 hours | 0.32 | 1.66 | 92.6
concentration: 52.4 (µM), S9 metabolic activation: with S9, exposure time: 3-4 hours | 0.34 | 1.32 | 89.5
concentration: 52.4 (µM), S9 metabolic activation: without S9, exposure time: 24 hours | 0.72 | 1.66 | 89
concentration: 65.5 (µM), S9 metabolic activation: with S9, exposure time: 3-4 hours | 0.28 | 1.86 | 87.3
concentration: 65.5 (µM), S9 metabolic activation: without S9, exposure time: 24 hours | 0.44 | 1.68 | 82.8
concentration: 81.9 (µM), S9 metabolic activation: with S9, exposure time: 3-4 hours | 0.34 | 1.7 | 83.7
concentration: 81.9 (µM), S9 metabolic activation: without S9, exposure time: 24 hours | 0.74 | 1.94 | 88.1
concentration: 102 (µM), S9 metabolic activation: with S9, exposure time: 3-4 hours | 0.46 | 1 | 85.7
concentration: 102 (µM), S9 metabolic activation: without S9, exposure time: 24 hours | 0.72 | 1.66 | 99.8
concentration: 128 (µM), S9 metabolic activation: with S9, exposure time: 3-4 hours | 0.3 | 1.14 | 91
concentration: 128 (µM), S9 metabolic activation: without S9, exposure time: 24 hours | 0.92 | 1.9 | 91.7
concentration: 160 (µM), S9 metabolic activation: with S9, exposure time: 3-4 hours | 0.28 | 1.48 | 91.3
concentration: 160 (µM), S9 metabolic activation: without S9, exposure time: 24 hours | 1.02 | 1.68 | 89
concentration: 200 (µM), S9 metabolic activation: with S9, exposure time: 3-4 hours | 0.16 | 1.66 | 89.5
concentration: 200 (µM), S9 metabolic activation: without S9, exposure time: 24 hours | 1.02 | 2.04 | 104
